The results in this text go back to the supplement of paper PMC11417369.

The other results are listed elsewhere or left out.

This assay has as its system PfSIP2 AP2 domain 1 (GST-tagged). In words: gcPBM binding intensity (ln(normalized median fluorescence intensity)); higher = stronger DNA binding. The procedure, abridged:
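GST-fused DNA-binding domains of P. falciparum, expressed in E. coli, were applied at about 25 μg on average for 1 h to an Agilent 4 × 180k array of primer-extended double-stranded 36-bp intergenic genomic probes and negative controls. Binding intensity is the highest Masliner-normalised natural-log median intensity across replicate spots of either probe orientation, measured with Alexa488 anti-GST antibody and a 488 nm scan.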
GTATTTATGTGTTTGGTGCAAGGGAGAATTTTTTTT: the “gcPBM binding intensity (ln)” value was 9.42.

Consider “AATATGTTTTACGTCTCACACATATAGGTTTATATT [CACACA_site4713]”, for which the “gcPBM binding intensity (ln)” value came to 6.92.

Turning to “CATAAATACAAATATACACACATATTTATATTTATA [CACACA_site7277]”, the “gcPBM binding intensity (ln)” value is 7.

For “ATTATACTTTCCATTCGTACATATATAAATAAATAA [XGTACX_site6245]”, the “gcPBM binding intensity (ln)” value was 7.64.

On to “ATATATAGATGTGAATTATTTATATTATCTATTCTT [CACACA_negctrl_site518]”, for which the “gcPBM binding intensity (ln)” value was 6.74.

“AAAAAGAACACAAAAAGTACAAAAATTATAATGATA [XGTACX_site2676]”: the “gcPBM binding intensity (ln)” value was determined as 6.98.

As to “AAACTTCAAAAAGAGCACTTGAATTTTTTTTTTTTT [TGCATGCA_negctrl_site133]”, the “gcPBM binding intensity (ln)” value was 6.69.

Turning to “AACAATAAATTATTATGTACACATATATTATATATA [XGTACX_site4629]”, the “gcPBM binding intensity (ln)” value turned out to be 7.36.

For “ATATTTTAAAATAATACACACAAAATGATTCTTAAT [CACACA_site2930]”, the “gcPBM binding intensity (ln)” value was found to be 6.96.

For “ATAAGTATTACTAGTACACACAAGTTGTTAATCCTT [CACACA_site3324]”, the “gcPBM binding intensity (ln)” value is 7.07.

As for “TATATTATATAATTTTAACACACAAGAATATAAACT [CACACA_site8378]”, the “gcPBM binding intensity (ln)” value is 7.13.

Turning to “TATTTAAAATAATAACAAAATTAACATAAATATATA [GTGCAC_negctrl_site472]”, the “gcPBM binding intensity (ln)” value was determined as 6.82.

In the case of “AAGGTGGGAAAAAATAGTACACAACAAAAATGTATG [XGTACX_site8741]”, the “gcPBM binding intensity (ln)” value is 7.23.

For “ATATATCTATATGTGTGTACATATAAGTATTTATAT [XGTACX_site5333]”, the “gcPBM binding intensity (ln)” value was 7.13.

As for “ACATATAAACTGTATACACACAAATATTGCATATAT [CACACA_site6804]”, the “gcPBM binding intensity (ln)” value amounted to 7.16.

“AGAAAAGAGAAATGGGCACACACACCCATATTATAT [CACACA_site8433]”: the “gcPBM binding intensity (ln)” value was 6.63.

For the sequence “TACATTCTAAATATTACACACTTTATAAAATAATAA [CACACA_site4069]”, the “gcPBM binding intensity (ln)” value amounted to 7.09.

As for “ATATATATAAATATATGTACTAATATATACATATAT [XGTACX_site2289]”, the “gcPBM binding intensity (ln)” value amounted to 7.19.

In the case of “CCCATGTAATATTAAACACACACTCATATAACACAA [CACACA_site7906]”, the “gcPBM binding intensity (ln)” value is 7.12.

On to “TTGTATCATATATTATGTACATATTTATTTATTATC [XGTACX_site7723]”, for which the “gcPBM binding intensity (ln)” value was 7.03.

Consider “CAAAATATTTAAAAAAGTACTTAAAATAAATTCAAA [XGTACX_site6866]”, for which the “gcPBM binding intensity (ln)” value turned out to be 6.7.

Consider “ATATTTAAATATATTTATATATATAAAAAAAAATAT [GTGCAC_negctrl_site312]”, for which the “gcPBM binding intensity (ln)” value is 7.03.

As to “AAAAAAATAAAAAATATATAAATAATTAATACATGT [GTGCAC_negctrl_site633]”, the “gcPBM binding intensity (ln)” value was 6.89.

In the case of “CACACAACTATCAAGGTGCTAAAATGAAATAATATA [GTGCAC_site9871]”, the “gcPBM binding intensity (ln)” value stood at 8.34.

Take “AATATAAATAAAAACACACACACACGGATATTTATA [CACACA_site7134]”: the “gcPBM binding intensity (ln)” value stood at 7.

With “AAACCAAGGCACAATAATTAAATAAATAAAATCATG [GTGCAC_negctrl_site574]”, the “gcPBM binding intensity (ln)” value worked out at 6.81.

On to “ATTTATATATATATAGGTACACATATTTATATATAA [XGTACX_site8487]”, for which the “gcPBM binding intensity (ln)” value stood at 7.01.

On to “ATATAATTTTTCAAGTGTACTTTTTTTTTTTAACAT [XGTACX_site3050]”, for which the “gcPBM binding intensity (ln)” value was 7.62.

Regarding “CATAATTATGCAATTGCACACAACTATCATTTTTTT [CACACA_site2997]”, the “gcPBM binding intensity (ln)” value came to 8.88.

Regarding “TCATTCATATGTTACACACACACACCCACATAAAAA [CACACA_site3245]”, the “gcPBM binding intensity (ln)” value came out at 7.29.

As for “TATATATAAAAAACATGTACACAAATTTACATACAT [XGTACX_site4777]”, the “gcPBM binding intensity (ln)” value is 7.08.

For “TCACTAAACCATTAGAGTACTTGACATATAATGAGC [XGTACX_site3272]”, the “gcPBM binding intensity (ln)” value turned out to be 6.93.

On to “AAGAGTTAAAAAAATACACACATATATATTTTTTTA [CACACA_site1980]”, for which the “gcPBM binding intensity (ln)” value was 6.96.

In the case of “GATTATATATGAAAATGTACAAATATATATATATAT [XGTACX_site5963]”, the “gcPBM binding intensity (ln)” value was determined as 9.41.

As to “AAAAAAAAAAAAAAAAAAAAAAAAAAATACATATGT [XGTACX_negctrl_site95]”, the “gcPBM binding intensity (ln)” value is 8.76.

For “TTTTTGTATGCTTCCCGACTACATTATGCCATAAAT [CACACA_negctrl_site136]”, the “gcPBM binding intensity (ln)” value came to 7.33.

As for “GTTTACATTAAAAATTGTACTCTGTATGAATAATAT [XGTACX_site80]”, the “gcPBM binding intensity (ln)” value was found to be 7.

As to “CTTAAAAAAACCTTAACACACATAAACTCTAATTTA [CACACA_site7430]”, the “gcPBM binding intensity (ln)” value was determined as 6.62.

On to “ATTTCATTTTATAAGTGTACAATAAAAAAAAAAAAA [XGTACX_site8677]”, for which the “gcPBM binding intensity (ln)” value was 7.22.

On to “GATGATACAAAGTAATGTACATAAATACACATATTG [XGTACX_site3177]”, for which the “gcPBM binding intensity (ln)” value was 6.95.

Turning to “ATATAAACAGAAAATAGTACTTTATATTGAAAAAAA [XGTACX_site7183]”, the “gcPBM binding intensity (ln)” value was found to be 6.73.

As for “AAATTTGATATAAAAAGTACAAAATGTTCCTCAGCT [XGTACX_site809]”, the “gcPBM binding intensity (ln)” value was 6.83.

“CATTATGTCGTAAATACACACATACCTATACATACA [CACACA_site6763]”: the “gcPBM binding intensity (ln)” value was 7.04.

On to “CCATAAGATATATGTAGTACATATTATATATATATA [XGTACX_site2104]”, for which the “gcPBM binding intensity (ln)” value was 9.08.

As to “TATACACATATATAAACACACAAAAAAAAAAAAAAA [CACACA_site7041]”, the “gcPBM binding intensity (ln)” value was determined as 7.01.

As for “AATATATAGCTAAAAACACACAAATATATACGCATA [CACACA_site3608]”, the “gcPBM binding intensity (ln)” value came out at 6.83.

Take “TTTATATGATATATTACACACAAAAAAAAAAAAAAA [CACACA_site3549]”: the “gcPBM binding intensity (ln)” value is 7.45.

For “CTCTTCTATATATAAGCATGCATTCATAATAATTTA [TGCATGCA_site679]”, the “gcPBM binding intensity (ln)” value stood at 7.22.

Take “TAGATACTTGTCATGGGTACATATCGTACCTTTTGG [XGTACX_site6781]”: the “gcPBM binding intensity (ln)” value amounted to 6.87.

For “GATAATTTTTTTCTCACACACAAATATTTTAATCAT [CACACA_site3666]”, the “gcPBM binding intensity (ln)” value is 7.24.

As to “AAATATATTATATCATATATTAAAGCATATATTAAA [CACACA_negctrl_site1624]”, the “gcPBM binding intensity (ln)” value stood at 6.67.

“AAAAAAAAAAAACACACACACACACCGACACATACA [CACACA_site5576]”: the “gcPBM binding intensity (ln)” value amounted to 7.2.

As for AGGTAAAAATGGTAAGTGCATTAATGATAAAAAATG, the “gcPBM binding intensity (ln)” value is 7.96.

For the sequence “GAATATTCACATACTTGTACATATATATATATATAT [XGTACX_site7302]”, the “gcPBM binding intensity (ln)” value came out at 8.9.

As to “TAATAATAGTACTGACATCGAAATATTATTAAAAAT [CACACA_negctrl_site255]”, the “gcPBM binding intensity (ln)” value was 6.73.

As for “TGGCAAAATAGGCACACACACATATACCTATAGATT [CACACA_site7168]”, the “gcPBM binding intensity (ln)” value turned out to be 7.05.
